Measurements reported in the RNAGym collection of RNA variant scans (doi:10.1093/nar/gkz1192).
Read counts are not given, so values of variants with three or more changes are uncertain.

B1: CPEB3 Ribozyme (parent)
chain: UAACAGGGGGCCACAGCAGAAGCGUUCACGUCGCAGCCCCUGUCAGAUUCUGGUGAAUCUGCGAAUUCUGCUGUAUAUCUC

Variants of: B1
Test: self-cleavage, relative activity (ratio to wild type); higher = more cleavage; in vitro, sequencing
How it was run: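 CPEB3 self-cleaving ribozyme mutant libraries were made by rounds of error-prone PCR, barcoded, and transcribed in vitro with T7 RNA polymerase for 5 hours at 37°C. Cleavage occurred during transcription and a 15 min DNase I step before EDTA stop. RNAs were reverse transcribed with template switching and Illumina-sequenced, with DNA sequencing mapping barcodes to variants. Relative activity is the variant's cleaved/total read fraction divided by wild type's (minimum 5 reads), averaged across three batches.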
Variant G33A A47G U51C A65G has a self-cleavage of 0.08.
G33A A47G U74C gave a self-cleavage of 0.42.
Variant G33A A47U U54C A57G U72C has a self-cleavage of 0.08.
G33A A56G U67C gave a self-cleavage of 0.07.
With G33A A57G A75U U78C the self-cleavage was 0.42.
Work on G33A A65G U67C U69C yielded a self-cleavage of 0.16.
Variant G33A A77G U80A has a self-cleavage of 0.21.
For G33A C34U A47G U49C U60G U72C, the self-cleavage was 0.07.
Work on G33A C37G U48C yielded a self-cleavage of 0.07.
G33A C37G U54A U69A C79G C81G gave a self-cleavage of 0.
G33A C37U U74A showed a self-cleavage of 0.11.
With G33A C38A A45G A47G A56G the self-cleavage was 0.42.
G33A C38A U51C A64G U80A showed a self-cleavage of 0.1.
With G33A C38G U58C the self-cleavage was 0.4.
In the case of G33A C38U A56U U80C, the self-cleavage is reported as 0.09.
Work on G33A C38U A57C U69C yielded a self-cleavage of 0.06.
G33A C38U U49A A56U showed a self-cleavage of 0.09.
G33A C39U U43C A45U gave a self-cleavage of 0.08.
With G33A C40U U43C A45G U60A the self-cleavage was 0.19.
With G33A C40U U69C the self-cleavage was 0.19.
G33A C44A A45G G52A U78A showed a self-cleavage of 0.17.
With G33A C59U U69C the self-cleavage was 0.07.
For G33A C62A A77U, the self-cleavage was 0.21.
With G33A G36A A47U A64U the self-cleavage was 0.08.
Work on G33A G36A C44A yielded a self-cleavage of 0.19.
Variant G33A G36U C40U U41C C44G U78C has a self-cleavage of 0.05.
In the case of G33A G36U U78C, the self-cleavage is reported as 0.37.
In the case of G33A G42C U43A G70A, the self-cleavage is reported as 0.15.
G33A G42U U49C C59U gave a self-cleavage of 0.09.
In the case of G33A G46U U69G U80C, the self-cleavage is reported as 0.07.
For G33A G53U U58C U60C U69C, the self-cleavage was 0.07.
Variant G33A G55U A56U has a self-cleavage of 0.1.
With G33A G61U A64U U72C the self-cleavage was 0.09.
G33A G63A A64G U67C showed a self-cleavage of 0.06.
For G33A U41A A57G A75U, the self-cleavage was 0.07.
For G33A U41A A57G U58C U72C U76A, the self-cleavage was 0.1.
G33A U41A A64G showed a self-cleavage of 0.21.
Work on G33A U41A A64U yielded a self-cleavage of 0.12.
G33A U41A C68U showed a self-cleavage of 0.17.
For G33A U41A G61U A65U U74C, the self-cleavage was 0.12.
With G33A U41A U43C U67C the self-cleavage was 0.08.
Variant G33A U41C A47G U69C has a self-cleavage of 0.13.
In the case of G33A U41C A57G, the self-cleavage is reported as 0.26.
With G33A U41C C71G the self-cleavage was 0.08.
For G33A U41C U49C, the self-cleavage was 0.1.
For G33A U41C U72C, the self-cleavage was 0.08.
With G33A U41G C50U U51C U67A U72C the self-cleavage was 0.06.
G33A U43A A45G U49C G53A showed a self-cleavage of 0.07.
G33A U43A U51A U66C showed a self-cleavage of 0.12.
G33A U43A U67C showed a self-cleavage of 0.16.
In the case of G33A U43C A64U U72A, the self-cleavage is reported as 0.09.
Variant G33A U43C U49C U67C U69A has a self-cleavage of 0.14.
In the case of G33A U43C U54C, the self-cleavage is reported as 0.31.
Work on G33A U43C U54C U72C U80G yielded a self-cleavage of 0.05.
In the case of G33A U43G A45G G46C, the self-cleavage is reported as 0.3.
Variant G33A U48C U51C C68A has a self-cleavage of 0.09.
G33A U48C U54C U69A showed a self-cleavage of 0.1.
G33A U49C U54C U60C U69A showed a self-cleavage of 0.15.
For G33A U51C A64G, the self-cleavage was 0.15.
For G33A U51G A57G A64G U80C, the self-cleavage was 0.09.
Variant G33A U51G C62G has a self-cleavage of 0.3.
In the case of G33A U54A G63A A64G, the self-cleavage is reported as 0.11.
G33A U54A U58C A77G showed a self-cleavage of 0.13.
Variant G33A U54A U60C has a self-cleavage of 0.13.
Work on G33A U54C U66C yielded a self-cleavage of 0.14.
Work on G33A U54C U69A yielded a self-cleavage of 0.34.
For G33A U58A U60C, the self-cleavage was 0.17.
For G33A U60A A77U, the self-cleavage was 0.16.
For G33A U60C U78C, the self-cleavage was 0.13.
Variant G33A U69A U72C has a self-cleavage of 0.18.
With G33A U74A A75G the self-cleavage was 0.17.
For G33C A35G C62U, the self-cleavage was 0.26.
Work on G33C A35G U54A U60C U66C yielded a self-cleavage of 0.13.
For G33C A45G U48C U49C, the self-cleavage was 0.08.
Variant G33C A45G U51A U60C has a self-cleavage of 0.1.
For G33C A45G U78A, the self-cleavage was 0.11.
G33C A47U A64U showed a self-cleavage of 0.12.
G33C A57U U67C U74C U78C gave a self-cleavage of 0.1.
For G33C A65U C68U, the self-cleavage was 0.1.
G33C C38A A45G U49C U80C gave a self-cleavage of 0.08.
For G33C C38U A56U A64G, the self-cleavage was 0.11.
Variant G33C C38U U41C G55U has a self-cleavage of 0.13.
With G33C C39A U48C A57G U74C the self-cleavage was 0.09.
Work on G33C C44A A64U yielded a self-cleavage of 0.13.
In the case of G33C G46U U51A, the self-cleavage is reported as 0.11.
In the case of G33C G53U A64G, the self-cleavage is reported as 0.18.
Variant G33C G53U U54C has a self-cleavage of 0.16.
For G33C U41A U49C A75C, the self-cleavage was 0.07.
With G33C U41C U72C the self-cleavage was 0.14.
Work on G33C U41G C79U yielded a self-cleavage of 0.15.
For G33C U43C C62U U69A, the self-cleavage was 0.18.
G33C U43C U54C showed a self-cleavage of 0.14.
With G33C U49C U51C G53A U72C the self-cleavage was 0.09.
Variant G33C U51A U78C has a self-cleavage of 0.11.
In the case of G33C U51C U67C U69C, the self-cleavage is reported as 0.07.
G33C U51G G63A U76C gave a self-cleavage of 0.11.
In the case of G33C U54A U76C, the self-cleavage is reported as 0.11.
G33C U54C A56C U69A showed a self-cleavage of 0.12.
G33C U60G U69C showed a self-cleavage of 0.09.
G33U A35G A57G U60C U66C U67C U80C showed a self-cleavage of 0.04.
For G33U A35G U60C U67C U80C, the self-cleavage was 0.09.
Variant G33U A35G U80C has a self-cleavage of 0.34.
For G33U A35U U41C, the self-cleavage was 0.21.
G33U A35U U41G U48G U60A showed a self-cleavage of 0.16.
With G33U A35U U51G A65G U69A the self-cleavage was 0.13.
G33U A35U U54A A57G gave a self-cleavage of 0.13.
In the case of G33U A35U U66C U72C, the self-cleavage is reported as 0.16.
Variant G33U A35U U72C has a self-cleavage of 0.12.
Work on G33U A45C A56G U72C U78C yielded a self-cleavage of 0.18.
With G33U A45G U54A A65U U67C the self-cleavage was 0.14.
With G33U A45G U66C U72A the self-cleavage was 0.05.
G33U A45U A56G showed a self-cleavage of 0.15.
For G33U A56G U72A, the self-cleavage was 0.14.
G33U A65G U72C gave a self-cleavage of 0.08.
G33U C38U C59U gave a self-cleavage of 0.37.
Work on G33U C39U U74A yielded a self-cleavage of 0.1.
Work on G33U C68A U69A yielded a self-cleavage of 0.07.
In the case of G33U G42U C71U U80C, the self-cleavage is reported as 0.12.
With G33U G52A U69G U78A the self-cleavage was 0.16.
Variant G33U G53C U54G has a self-cleavage of 0.22.
G33U U41A U51A U80A gave a self-cleavage of 0.17.
Variant G33U U41C A45U has a self-cleavage of 0.06.
G33U U41C A47U U66C gave a self-cleavage of 0.14.
G33U U41C U49A U69C G70C showed a self-cleavage of 0.06.
Work on G33U U41C U49C U66C yielded a self-cleavage of 0.13.
Variant G33U U43A A47G A56U has a self-cleavage of 0.11.
Variant G33U U49C U69A has a self-cleavage of 0.11.
G33U U54A U60C showed a self-cleavage of 0.08.
G33U U66G A75G showed a self-cleavage of 0.04.
G33U U72C U74A showed a self-cleavage of 0.11.
Work on C34A A35G C39A yielded a self-cleavage of 0.42.
C34A A35U U48A U58A gave a self-cleavage of 0.1.
In the case of C34A A35U U58A A64G, the self-cleavage is reported as 0.16.
Variant C34A A35U U80C has a self-cleavage of 0.33.
Work on C34A A45G A56U G61C yielded a self-cleavage of 0.1.
Variant C34A A45G A75G has a self-cleavage of 0.23.
C34A A45U U48C U67A showed a self-cleavage of 0.18.
Variant C34A A47G A56G has a self-cleavage of 0.14.
Work on C34A A56G U78A U80C yielded a self-cleavage of 0.25.
In the case of C34A A57G U58C U66C, the self-cleavage is reported as 0.07.
C34A C38U U43C gave a self-cleavage of 0.18.
Variant C34A C38U U66A has a self-cleavage of 0.32.
C34A C40U U54C gave a self-cleavage of 0.1.
In the case of C34A U41C A45U U58A C62U, the self-cleavage is reported as 0.03.
For C34A U43C U48C, the self-cleavage was 0.08.
C34A U43C U48C A56U gave a self-cleavage of 0.17.
For C34A U66C U76C, the self-cleavage was 0.22.
C34G A35G A47G showed a self-cleavage of 0.38.
For C34G A35G U72G U80C, the self-cleavage was 0.64.
Variant C34G A45U A56G A64G U67C has a self-cleavage of 0.08.
For C34G A45U C59A, the self-cleavage was 0.1.
C34G A45U U51C U69C U72C showed a self-cleavage of 0.12.
Variant C34G A47C U54C has a self-cleavage of 0.14.
With C34G A47G A77C the self-cleavage was 0.11.
Work on C34G A57G U60C U72A yielded a self-cleavage of 0.12.
Variant C34G A57U C59U G63A has a self-cleavage of 0.07.
Variant C34G A65G U74A has a self-cleavage of 0.08.
For C34G C40A A45U C59A, the self-cleavage was 0.14.
With C34G C68A A77G the self-cleavage was 0.07.
With C34G G52A U60C G70U A77G the self-cleavage was 0.11.
C34G G53A U58A showed a self-cleavage of 0.11.
Variant C34G U41A U43A has a self-cleavage of 0.39.
In the case of C34G U41C A56G, the self-cleavage is reported as 0.23.
For C34G U41C A56G U78C, the self-cleavage was 0.08.
Work on C34G U48C U54A yielded a self-cleavage of 0.12.
Variant C34G U48C U54A G73A has a self-cleavage of 0.26.
In the case of C34G U48C U58C, the self-cleavage is reported as 0.1.
